PubChem BioAssay AID1918991 (Molecular Pharmacology Branch, DTP, NCI, 2023)
Not every entry of the source has a single result; some have several. The list is limited to them. There may be further records. Results that share an entry are repeats in other runs, samples, wells, individuals or studies. Marks such as (2×) say how often a value occurs here. Blank lines part the entries; values can stand above or below the molecule they belong to.

System: 186277-243-T-J2-PDC complex spheroid growth
Assay: Anticancer human tumor 186277-243-T-J2-PDC patient-derived colon adenocarcinoma cell line growth inhibition [AhR]
Settings: for IC50: compound alone; for viability, T/C: stronger effect = lower value
Text: Multicellular complex tumor spheroid response to aryl hydrocarbon receptor antagonists in combination with a variety of drugs and investigational agents in selected tumor cell lines
The current study was undertaken to assess response to aryl hydrocarbon receptor antagonists in combination with standard-of-care drugs and investigational agents in solid tumor complex spheroid models. Complex spheroids include a stromal component modeled by human endothelial cells (HUVEC) and fibroblasts modeled by human mesenchymal stem cells (MSCs). The concentration ranges selected for each drug and investigational agent were based upon clinically achievable concentrations if the clinical Cmax of the agent was known.
Compounds. The drugs and investigational agents: BAY 2416964 (NSC825713), GNF351 (NSC835774), CH-223191 (NSC835775), CPI-455 (NSC825282), aza-TdCyd (NSC777586), decitabine (NSC127716), belinostat (NSC758774), entinostat (NSC756642), pevonedistat (NSC761192), tazemetostat (NSC777109), talazoparib (NSC765396), olaparib (NSC753686), selinexor (NSC780203), nedisertib (M3814, NSC802822), bortezomib (NSC756655), venetoclax (NSC766270), doxorubicin (NSC123127), elimusertib (BAY189344, NSC800525), ceralasertib (AZD6738, NSC777638), TAK-243 (NSC785004), alisertib (NSC759677), etoposide (NSC141540), topotecan (NSC609699), eribulin (NSC707389), gemcitabine (NSC613327), carboplatin (NSC241240), cisplatin (NSC119875), and SN-38 (NSC673596) were obtained from the National Cancer Institute (NCI) Developmental Therapeutics Program Chemical Repository (32). The FDA-approved anticancer drug set is available from the Developmental Therapeutics Program at https://dtp.cancer.gov/organization/dscb/obtaining/available plates.htm. […] The stock solutions were prepared in dimethyl sulfoxide (DMSO, Sigma-Aldrich, St. Louis, MO, cat. D2650), except for the platinum compounds which were prepared in saline (Quality Biological, Gaithersburg, MD, cat. 114-055-101), at 800-fold the tested concentration and stored at -70 degrees C prior to their use. All drugs and investigational agents were tested over a range starting from a high concentration at or near the clinical Cmax and decreasing in half-log increments. If the clinical Cmax for an agent had not been determined, the highest concentration tested was 10 microM (Table 1).
Cell Culture. All cells were maintained in an incubator at 37 degrees C and 5% CO2 with 95% humidity. The PDC lines were cultured according to standard operating procedures established by the NCI PDMR (https://pdmr.cancer.gov). Briefly, all PDCs were thawed and cultured in Matrigel-coated flasks prepared with a working solution of 1X Ham's F-12 nutrient mix, without supplementation (Invitrogen, Waltham, MA, cat. 11765054), 100 U/mL penicillin-streptomycin (Invitrogen, cat. 15140122), and 2.5% Matrigel (Corning Inc., Corning, NY, cat. 354248) for the first three passages. All PDCs were cultured in complete DMEM/F-12 media containing advanced DMEM/F-12 (Invitrogen, cat. 12634028), 4.9% defined fetal bovine serum, heat inactivated (HyClone Laboratories Inc., Logan, UT, cat. SH30070.03HI), 389 ng/mL hydrocortisone (Sigma-Aldrich, cat. H4001), 9.7 ng/mL human EGF recombinant protein (Invitrogen, cat. PHG0313), 23.4 microg/mL adenine (Sigma-Aldrich, cat. A2786), 97.3 U/mL penicillin-streptomycin (Invitrogen, cat. 15140122), 1.9 mM L-glutamine (Invitrogen, cat. 25030081), and 9.7 microM Y-27632 dihydrochloride (Tocris Bioscience, Bristol, United Kingdom, cat. 1254). The PDCs were cultured in complete DMEM/F12 media without 10 microM Y-27632 dihydrochloride for at least two passages prior to the screen. The established cell lines NCI-H1341 and […] were cultured in DMEM/F-12, HEPES (Invitrogen, cat. 11330032), 5% defined fetal bovine serum (HyClone Laboratories Inc., cat. SH30070.03), ITS premix universal culture supplement [insulin (5 microg/mL), transferrin (5 microg/mL), and selenious acid (5 ng/mL)] […]
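Further: spheroids exposed to compounds for seven days before the viability read.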
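Wherever viability, T/C is given: luminescent signal used as a stand-in for viable cell amount; 100% = DMSO vehicle control wells.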

Compound: Cc1cncc(-c2nc(NCCc3c[nH]c4ccccc34)c3ncn(C(C)C)c3n2)c1
IC50 (AhR antagonist combinations, run of 07/18/2022): > 10 µM, 8.81 µM, 9.25 µM, 9.4 µM, 9.2 µM, 6.79 µM, 7.32 µM, 6.38 µM, 7.28 µM, 6.71 µM | viability, T/C (compound alone 0.1 µM): 99.5, 103 (2×), 97.3, 96, 97.5, 85.9, 93.5, 106, 84.5, 97.9, 90.6, 81.9, 80.9, 89.1, 98.9, 94.8, 89.9, 97.8, 107% | viability, T/C (compound alone 1 µM): 103 (2×), 105 (2×), 110, 94.9, 94.5, 98, 104, 88.7, 106, 88.5, 117, 100, 107, 101, 91.6, 96.3, 98.3, 111% | viability, T/C (compound alone 3.16 µM): 100 (2×), 104 (2×), 109, 101, 97.6, 110 (2×), 120, 88.2, 106 (2×), 102, 93.2, 107, 108, 84.6, 91.8, 111% | viability, T/C (compound alone 10 µM): 56.4, 64.5, 66.6, 57.9, 110, 54.1, 44, 45.9, 47.8, 45.8, 102, 96.2, 78, 83.8, 79.3, 89.5, 77.1, 77, 83.5, 97.5%

Compound: O=C(C=Cc1cccc(S(=O)(=O)Nc2ccccc2)c1)NO
viability, T/C (compound alone 3.16 µM): 2.65%, 13.5%, 29.4%

Compound: CC(C)CC(NC(=O)C(Cc1ccccc1)NC(=O)c1cnccn1)B(O)O (centres undefined)
viability, T/C (compound alone 0.00949 µM): 3.18%, 76.2%, 87.4%

Compound: CC1COCCN1c1cc(-c2ccnn2C)c2ccnc(-c3ccn[nH]3)c2n1 (centres undefined)
viability, T/C (compound alone 0.1 µM): 6.77%, 37.1%, 39%

IC50: 276 nM, 1.65 µM, 9 µM
Compound: COc1cc(C2c3cc4c(cc3C(OC3OC5COC(C)OC5C(O)C3O)C3COC(=O)C23)OCO4)cc(OC)c1O (centres undefined)

Compound: CC(CO)NC(=O)c1cc(-c2ccc(Cl)cc2)nn(-c2cnn(C)c2)c1=O (centres undefined)
viability, T/C (compound alone 0.1 µM): 88.7, 95.4, 109, 105, 97.6, 104, 102, 99 (2×), 106, 107, 108, 99.3, 90.1, 82.2, 101, 98.2, 87.1, 103, 111% | viability, T/C (compound alone 0.316 µM): 97.3, 101 (3×), 108 (2×), 105 (2×), 104 (2×), 107, 111 (2×), 103, 109 (2×), 88.3, 99.2, 89.8, 118, 102% | viability, T/C (compound alone 3.16 µM): 104, 98, 83, 95.2, 97.5, 99.4, 100, 90.5, 112, 84.1, 97.6, 91.3, 99, 102, 91.7, 98.7, 89.5, 92.4, 106%

Compound: CC1(C)CCC(CN2CCN(c3ccc(C(=O)NS(=O)(=O)c4ccc(NCC5CCOCC5)c([N+](=O)[O-])c4)c(Oc4cnc5[nH]ccc5c4)c3)CC2)=C(c2ccc(Cl)cc2)C1
viability, T/C (compound alone 10 µM): 8.91%, 83.5%, 31.2%

Compound: Cc1ccccc1N=Nc1ccc(NC(=O)c2ccnn2C)c(C)c1
viability, T/C (compound alone 0.1 µM): 102 (3×), 99.3, 99.1, 97.7, 96.8, 103, 101 (2×), 115, 85, 97.9, 91.9, 108 (2×), 89.6, 96.5, 104, 88.9% | viability, T/C (compound alone 0.316 µM): 86.2, 101 (2×), 86.3, 94.8, 114, 111 (2×), 93.7 (2×), 100 (2×), 99.8, 105 (2×), 106, 98.2, 103, 90.2, 88.4%

IC50: < 31.6 nM, 188 nM, 459 nM
Compound: COc1cccc2c1C(=O)c1c(O)c3c(c(O)c1C2=O)CC(O)(C(=O)CO)CC3OC1CC(N)C(O)C(C)O1 (centres undefined)
viability, T/C (compound alone 0.316 µM): 6.89%, 30.9%, 71.2%

IC50: < 0.949 nM, 27.1 nM, 77 nM
Compound: CCc1c2c(nc3ccc(O)cc13)-c1cc3c(c(=O)n1C2)COC(=O)[C@]3(O)CC

IC50: < 31.6 nM and > 10 µM (2×)
Compound: COc1cc(Nc2ncc3c(n2)-c2ccc(Cl)cc2C(c2c(F)cccc2OC)=NC3)ccc1C(=O)O
